Data from publication PMC4336329 (PLoS ONE, 2015).
The campaign covered roughly 310,000 compounds. About 14,000 (4.5%) showed an effect of 50% or more. The effect is printed as a negative number. Some of the results follow.

target: human ether-à-go-go-related gene (hERG) potassium channel (human, UniProt Q12809); experiment: primary screen, population patch clamp on CHO cells stably expressing hERG
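Note: peak tail current of the secondary pulse compared with the same well before compound.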

human ether-à-go-go-related gene (hERG) potassium channel, sequence (Q12809 whole entry, looked up): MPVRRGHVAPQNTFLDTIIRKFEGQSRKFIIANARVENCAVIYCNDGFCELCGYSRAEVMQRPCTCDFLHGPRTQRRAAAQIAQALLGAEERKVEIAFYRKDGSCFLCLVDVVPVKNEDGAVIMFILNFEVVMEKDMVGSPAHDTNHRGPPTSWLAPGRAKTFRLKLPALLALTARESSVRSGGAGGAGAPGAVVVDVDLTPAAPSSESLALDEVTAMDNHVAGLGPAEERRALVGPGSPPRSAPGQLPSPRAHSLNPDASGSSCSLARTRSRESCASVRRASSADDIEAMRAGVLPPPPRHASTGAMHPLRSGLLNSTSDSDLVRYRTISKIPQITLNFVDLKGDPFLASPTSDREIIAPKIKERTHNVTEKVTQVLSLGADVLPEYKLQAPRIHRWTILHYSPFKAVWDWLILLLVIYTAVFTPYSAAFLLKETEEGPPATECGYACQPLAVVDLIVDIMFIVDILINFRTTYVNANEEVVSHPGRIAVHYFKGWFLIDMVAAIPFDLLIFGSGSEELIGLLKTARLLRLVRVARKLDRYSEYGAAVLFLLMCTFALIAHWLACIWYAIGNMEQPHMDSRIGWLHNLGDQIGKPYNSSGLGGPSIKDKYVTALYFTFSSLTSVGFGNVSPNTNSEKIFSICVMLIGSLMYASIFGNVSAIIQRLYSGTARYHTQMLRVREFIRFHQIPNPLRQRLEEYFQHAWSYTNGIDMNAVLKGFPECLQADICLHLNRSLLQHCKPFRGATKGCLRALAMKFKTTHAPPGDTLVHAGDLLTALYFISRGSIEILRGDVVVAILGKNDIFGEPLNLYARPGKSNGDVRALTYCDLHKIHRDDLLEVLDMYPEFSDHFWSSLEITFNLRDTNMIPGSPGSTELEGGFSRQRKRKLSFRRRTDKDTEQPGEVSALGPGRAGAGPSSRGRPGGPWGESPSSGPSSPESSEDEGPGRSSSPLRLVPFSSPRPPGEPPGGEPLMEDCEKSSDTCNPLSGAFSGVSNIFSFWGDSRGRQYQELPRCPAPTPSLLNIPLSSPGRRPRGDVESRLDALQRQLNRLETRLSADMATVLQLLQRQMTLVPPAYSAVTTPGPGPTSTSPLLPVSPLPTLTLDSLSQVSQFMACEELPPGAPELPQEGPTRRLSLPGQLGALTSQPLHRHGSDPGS

SMILES | hERG current change (%, negative = inhibition) at 10uM [%]
CCOC(=O)C1=C(CS(=O)(=O)c2ccccc2)NC(=O)NC1c1ccccc1 (stereo not shown) | 7.48
COc1ccc(C(=O)N2CCC(O)(c3ccc(Cl)cc3)CC2)cc1OC | -51.9
COCCNC(=O)/C(C#N)=C/c1cccc(NC(=O)c2ccccc2Cl)c1 | -3.15
COCCN=C1Sc2nc3cc4c(cc3cc2CN1CC1CCCO1)OCO4.Cl (stereo not shown) | -5.22
Cc1ccc(S(=O)(=O)N2Cc3ccccc3CC2C(=O)Nc2ccc3c(c2)OCO3)cc1 (stereo not shown) | -9.83
CCn1c(SCc2nc(-c3ccccc3)no2)nc2ccccc21 | -24.6
CCCCC(CC)C(=O)Nc1ccc(S(=O)(=O)Nc2nccs2)cc1 (stereo not shown) | -0.352
Cc1ccc(NC(=O)N2CCCn3c(SCC(=O)c4ccccc4)nnc32)cc1 | -1.04
Cc1cc(C)nc(N/N=C/C=C/c2ccccc2)n1 | -49
COc1ccc(CNC(=O)CNC(=O)c2sc3ccccc3c2Cl)cc1OC | 6.04
Cc1ccc(C(=O)CN(CCCC(N)=O)C(=O)c2ccncc2)cc1 | 17.9
Cc1cc(C)c(C)c(OCC(=O)O/N=C(\N)c2ccncc2)c1 | -10.5
CC(C)(C)c1csc(NNC(=O)c2ccc(Cl)cc2)n1 | 6.98
CN(C)S(=O)(=O)c1cccc(NC(=O)COC(=O)COc2ccccc2[N+](=O)[O-])c1 | 8.02
Cc1nc(NC(=O)Nc2ccc(Cl)cc2)sc1C | 10.9
Cc1nc2ccccc2nc(=O)c1NNc1ccc([N+](=O)[O-])cc1 | -1.1
Cn1c(SCc2cccc(C#N)c2)nc2ccccc2c1=O | -2.43
O=C(CN1C(=O)NC2(CCCCC2)C1=O)NCc1cccs1 | 5.87
Cc1ccc(CNC(=O)c2ccc(NC(=O)C3=CSCCO3)cc2)cc1 | 0.396
COc1ccc(N2C(=O)NC(NC(=O)C(C)(C)C)(C(F)(F)F)C2=O)cc1 (stereo not shown) | 35.2
CC(=O)Nc1ccc(NC(=O)CSc2ccc3nnc(CCNC(=O)c4ccccc4)n3n2)cc1 | 4.98
CC(=O)Nc1ccc(/C(C)=N/NC(=O)c2ccncc2)cc1 | 10.5

SMILES | hERG current change (%, negative = inhibition) at 10uM [%]
NC(=O)Cn1nc2sc3ccccc3n2c(=O)c1=O | 12.6
CCCn1c(N)c(C(=O)CN(C)CC(=O)Nc2c(Cl)cccc2Cl)c(=O)[nH]c1=O | -9.48
Cc1nc2ncnn2c(Nc2ccc3c(c2)OCO3)c1Cc1ccccc1 | -55.1
Cc1cc2ccccc2c(=O)n1CC(=O)Nc1ccc2c(c1)OCO2 | -2.97
O=C(COc1coc(CN2CCN(c3cccc(Cl)c3)CC2)cc1=O)NC1CCCC1 | -24.9
COc1ccc(Cc2nnc(SCc3ccc([N+](=O)[O-])cc3)o2)cc1 | -26.2
Cc1nc(-c2ccc(Cl)cc2)sc1C1(C)CC(c2cccc([N+](=O)[O-])c2)=NO1 (stereo not shown) | 9.75
Cc1ccccc1OCC(=O)Nc1ccccc1CO | 11.5
CCN(CC(=O)Nc1ccccc1OC)C(=O)CN1C(=O)NC2(CCCC2)C1=O | -37.9
CC(=O)Nc1ccc(-c2nnn(CC(=O)c3ccc(F)cc3)n2)cc1Cl | 3.95
CCOc1ccc(NC(C)c2cc(Cl)ccc2O)cc1 (stereo not shown) | 5.68
CCOC(=O)CCc1c(C)c2ccc(OC3CCCCC3=O)cc2oc1=O (stereo not shown) | 18.7
CCOC(=O)c1oc2nc3c(cc2c1N)CCCC3 | 9.43
O=c1ccn([C@@H]2O[C@H](CO)[C@@H](O)[C@H]2O)c(=O)[nH]1 | 13.5
CCCN1CCCC[C@H]1C(=O)Nc1c(C)cccc1C.Cl | -22
Cc1cc(C)n(C(=O)CCCCCCCC(=O)n2nc(C)cc2C)n1 | 0.265
O=C(O)CCCC(=O)NCCc1ccncc1 | 12.6
Cc1ccc(-n2nnnc2SCC(=O)NCCC2=CCCCC2)c(C)c1 | -13.1
O=C1NC(=O)N(c2ccc(Cl)cc2)C(=O)/C1=C/c1coc2ccc(O)cc2c1=O | 4.71
CSc1nc2ccccc2n1CC(=O)Nc1ccccc1 | 0.767
CCCCn1nc(NS(=O)(=O)c2cccc3nonc23)c2cc3cccc(C)c3nc21 | 23
O=C(NCc1ccccc1)c1nc[nH]c1C(=O)NCc1ccccc1 | 7.21

SMILES | hERG current change (%, negative = inhibition) at 10uM [%]
COc1ccc(OC)c(/C=C/C(=O)OCC(=O)NCc2cccs2)c1 | 17.8
Cc1ccc(C)c(NC(=O)C2CCCN(S(=O)(=O)c3c(C)nn(C)c3C)C2)c1 (stereo not shown) | 11.6
CCOc1ccc(NC(=O)c2cc(F)c(F)cc2Cl)cc1OCC | 22.1
CC1CCCN(C(=O)Cn2nnc(-c3ccc(F)cc3)n2)C1 (stereo not shown) | -25.5
Cc1ccccc1NS(=O)(=O)c1ccc(OCC(=O)NCC2CCCO2)cc1 (stereo not shown) | 2.34
CC(C)C(C)(C#N)NC(=O)CSc1nnc(-c2ccncc2)n1Cc1ccccc1 (stereo not shown) | 1.1
Cc1cccnc1NC(=O)c1ccc(NS(=O)(=O)/C=C/c2ccccc2)cc1 | -18.2
C=CCN(N=Nc1cccc([N+](=O)[O-])c1)c1cccc([N+](=O)[O-])c1 | 13.2
Cc1ccc(C)c(S(=O)(=O)C(C#N)c2nc3ccccc3nc2N2CCOCC2)c1 (stereo not shown) | 11.6
Cc1c(NC(=O)c2ccc3c(c2)OCO3)cccc1-c1nc2ccccc2o1 | -6.02
CC(=O)NC(c1cc(Cl)c2cccnc2c1O)C1CC1 (stereo not shown) | 6.7
O=C(Cn1nc(-c2ccco2)ccc1=O)Nc1ccc(Br)cc1 | 2.84
O=C1C(=O)N(Cc2ccco2)C(c2cccs2)/C1=C(\O)c1cccc([N+](=O)[O-])c1 (stereo not shown) | 4.21
Cc1cc(C(=O)N2CCc3ccccc3C2)on1 | 10.1
CC(=O)NS(=O)(=O)c1ccc(NS(=O)(=O)c2ccc3ccccc3c2)cc1 | 0.292
CCOC(=O)C1CCCN(C(=O)c2ccc(Cn3c(=S)[nH]c4cc(C(=O)OC)ccc4c3=O)cc2)C1 (stereo not shown) | 10.6
O=C(c1ccc2ccccc2n1)N1CCN(c2ccccc2Cl)CC1 | -64.8
O=C(NNC(=O)c1sccc1-n1cccc1)c1ccc(Cl)cc1 | 11.9
CS(=O)(=O)O.Cc1ccc(N(CC2=NCCN2)c2cccc(O)c2)cc1 | -51.2
COc1ccc(/C=N/NC(=O)CCC(=O)Nc2ccc(F)cc2)c(OC)c1 | 14.9
CC(C)=CC(O)C/C(C)=C/COc1ccc2ccc(=O)oc2c1 (stereo not shown) | -8.79
CC(CCc1ccccc1)NC(=O)c1cccc(F)c1 (stereo not shown) | 8.59

SMILES | hERG current change (%, negative = inhibition) at 10uM [%]
O=[N+]([O-])c1ccc2nc(-c3ccncc3)[nH]c2c1 | -6.32
O=C1CN(C(=O)c2ccc(Br)o2)C(c2ccc(F)cc2)c2cc(F)ccc2N1 (stereo not shown) | -28.4
CCOc1ccc2nc(SCC(=O)NC3CCCCC3)[nH]c2c1 | -0.262
COc1ccc(-c2oc(=O)n(C)c2-c2ccc(OC)cc2)cc1 | -26.2
Cc1nc(N)c(CC(Br)CBr)c(Cl)n1 (stereo not shown) | 10.3
Cc1sc2c(c1C)c(=O)n(-c1ccccc1)c1nncn21 | 5.43
CN(C)S(=O)(=O)n1cc(/C=C(\NC(=O)c2ccccc2F)C(=O)N2CCCC2)c2ccccc21 | 15
COC(CNC(=O)c1coc2nc3ccccc3nc12)OC | 1.77
COc1cc2cc[n+](Cc3ccc([N+](=O)[O-])cc3)cc2cc1OC.[Cl-] | -30.5
CCn1c(=O)c(C(=O)Nc2ccsc2C(=O)OC)c(O)c2ccccc21 | 15.3
COc1ccc(-n2c(O)c(C=Nc3c(C)n(C)n(-c4ccccc4)c3=O)c(=O)[nH]c2=O)cc1 | 3.57
CSC1=NS(=O)(=O)c2c(C)nn(C)c2S1 | 17.6
O=C(Nc1cnn(Cc2ccc(F)cc2)c1)c1cc(-c2ccco2)on1 | -6.05
O=S(=O)(Nc1ncccn1)c1ccc(NC(=S)Nc2ccccc2)cc1 | 16.5
Cc1nc(Cl)c2c(n1)N(CC(N)=O)C(=O)CO2 | 13.4
COc1ccccc1NC(=O)/C(=C\c1cccnc1)NC(=O)c1ccc(C)cc1 | -71.9
CC1Sc2ccc(C(=O)NCc3cccc(C(F)(F)F)c3)cc2NC1=O (stereo not shown) | -4.86
O=C(COc1ccccc1)Nc1nnc(S(=O)(=O)N2CCCCC2)s1 | 24.9
CCOc1ccccc1NC(=O)NCCN1CCCCC1 | 8.27
Cc1c(Cl)c([N+](=O)[O-])nn1CCCC(=O)Nc1c(C)n(C)n(-c2ccccc2)c1=O | 16.5
Cc1ccccc1NC(=S)NCCc1ccccn1 | -0.0106
Cc1c(OCC(=O)NCC2CCC(C(=O)NCCCO)CC2)ccc2c(-c3ccccc3)cc(=O)oc12 (stereo not shown) | 0.988
